# Test results as given in the supplement of paper PMC8512760.
# The list shows a part of the results. Many values rest on one well or one pass, so single values are uncertain.
# Experiments:
# Test in all cases: cell viability relative to vehicle (% of vehicle); basal-like triple-negative breast cancer lines; higher = less cytotoxic
# Settings in all cases: 10 µM; 72 h
# [1] = system: HCC-1143
# [2] = system: HCC-1187
# [3] = system: MDA-468
# [4] = system: SUM-149
# 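Further: stably firefly luciferase-GFP labeled cells in 96-well plates, viability read as luciferase photon flux after d-luciferin addition, treated wells normalized to vehicle wells, single-dose high-throughput screen.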
compound,measurement,setting,value
CCN(CC)CCNC(=O)c1c(C)[nH]c(C=C2C(=O)Nc3ccc(F)cc32)c1C.O=C(O)CC(O)C(=O)O [Sunitinib malate],cell viability,[1],108
same,cell viability,[2],71.8
same,cell viability,[3],21.4
same,cell viability,[4],24
Nc1ccc(C(=O)[O-])c(O)c1.O.O.[Na+] [Sodium 4-Aminosalicylate],cell viability,[1],80.7
same,cell viability,[2],87.7
same,cell viability,[3],93.7
same,cell viability,[4],121
COc1ccc(C(=O)c2ccccc2)c(O)c1 [Oxybenzone],cell viability,[1],90.1
same,cell viability,[2],110
same,cell viability,[3],118
same,cell viability,[4],98.5
C=C(c1ccc(C(=O)O)cc1)c1cc2c(cc1C)C(C)(C)CCC2(C)C [Bexarotene],cell viability,[1],95
same,cell viability,[2],108
same,cell viability,[3],95.1
same,cell viability,[4],107
CNCCC(Oc1cccc2ccccc12)c1cccs1.Cl (stereo not given) [Duloxetine HCl],cell viability,[1],91.7
same,cell viability,[2],42.7
same,cell viability,[3],76.4
same,cell viability,[4],58.1
C[N+](C)(C)CC(=O)[O-] [Betaine],cell viability,[1],90.2
same,cell viability,[2],87.9
same,cell viability,[3],116
same,cell viability,[4],91.6
CC(C)[N+]1(C)C2CCC1CC(OC(=O)C(CO)c1ccccc1)C2.[Br-] (stereo not given) [Ipratropium Bromide],cell viability,[1],140
same,cell viability,[2],122
same,cell viability,[3],151
same,cell viability,[4],150
N.N.O=C([O-])C1(C(=O)[O-])CCC1.[Pt+2] [Carboplatin],cell viability,[1],72.9
same,cell viability,[2],76.9
same,cell viability,[3],83.2
same,cell viability,[4],102
CS(=O)(=O)O.N#CC1(c2ccc(NC(=O)c3cccnc3NCc3ccncc3)cc2)CCCC1 [Apatinib],cell viability,[1],92
same,cell viability,[2],113
same,cell viability,[3],125
same,cell viability,[4],133
Nc1nc(=O)c2nc(CNc3ccc(C(=O)NC(CCC(=O)O)C(=O)O)cc3)cnc2[nH]1 (stereo not given) [Folic acid],cell viability,[1],101
same,cell viability,[2],93.3
same,cell viability,[3],120
same,cell viability,[4],103
